Laboratory results as given in the supplement of paper PMC3334620.
Whole data set: some 33,000 sequences, median “E-score (-0.5 to 0.5)” near -0.054, cut for the highest 2% near 0.39. The list shows a part of the results.

biological target: Ylr278c (UniProt Q05854); assay: PBM E-score (8-mer binding enrichment) (E-score (-0.5 to 0.5)); higher = stronger / more preferred TF binding; most listed sequences are background and not binding sites; conditions: protein concentration: 200 nM; construct: GST-DNA-binding domain
Summary of the method: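 GST-tagged yeast TFs (full-length or DNA-binding domain) were made by PURExpress in vitro transcription/translation and applied at about 100-200 nM to universal all-10-mer Agilent arrays. The arrays were made double-stranded by primer extension, on fresh or once-stripped slides. Bound protein was detected with fluorescent anti-GST, and scans were normalised with masliner. Each ungapped eight-base word, pooled with its reverse complement, received an E-score (modified Wilcoxon-Mann-Whitney statistic) from the Universal PBM Analysis Suite.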

Sequence	PBM E-score
ATTAACTG	-0.0682
GATAATGC	-0.0424
CGTGACGC	-0.0619
CAAACCCC	0.217
AATCAGCT	-0.182
AACAGCGT	0.00076
CGAATAAA	0.142
CGAGGCAA	-0.0308
TCACTCGA	-0.233
AGGCACAG	-0.228
ATCGGTAA	0.2
AGCCTTGA	-0.153
AGTTGCTA	0.0917
CAGACACA	-0.118
CTAGGGTC	-0.308
CACGGGCG	0.225
GCTGGCCA	-0.0154
CCTACTTA	-0.163
ACAGACAA	0.105
AGACGGGC	0.089
AAGTCTCT	-0.303
ATCTACAG	-0.0146
CAATGTGA	-0.225
GAGCTCAC	-0.0998
ACGGATTC	0.246

Sequence	PBM E-score
TATGCGGA	0.358
CGCACGCA	0.0589
CAGGGACA	-0.0712
GTATTTCA	-0.175
AGCTCGGA	0.322
CACCCCAC	-0.0134
AGTGTTGG	0.034
GAGGCGCC	0.0297
CGTTGTTA	0.012
CGAGTACG	-0.0729
CAACTACG	-0.00049
TAGGAAGA	-0.224
AAATATCG	0.152
CGCTGGGA	-0.0721
ACCAAGGT	-0.0132
TCTGTAAA	0.0808
ACCATCCT	-0.31
ACTCAACA	-0.134
GGACCGCA	0.238
CGTGAGGA	-0.0251
CTTACCGC	0.167
AGACGCAG	-0.164
CTACCAAC	-0.134
AGTTACCC	0.0239
GCCAATGA	-0.237

Sequence	PBM E-score
GACGCTGC	0.0259
ACTAAAGA	-0.145
CAGTTTTA	-0.16
ACCCTAGA	-0.268
CAGTCCAC	-0.265
CCAGGTAG	-0.135
ATCAGGAT	-0.018
CTTCAAAG	-0.164
ATGTACAG	-0.13
CAATTCGA	-0.192
GCTTATCC	0.136
CGACGTAG	-0.05
ATGTCCAG	-0.142
AGAGATGC	-0.0846
ATCCGGAT	0.452
ATCCGGTA	0.294
AGAATTTC	0.0325
ACCGTACG	-0.186
GGATCGAC	0.174
ACAACCCT	-0.188
ATTTGAAA	-0.0475
ACATCAAA	0.0163
CCAAAGGA	-0.218
CACCGGCG	0.383
AATACTGT	-0.00119

Sequence	PBM E-score
AACCTGAT	-0.222
CCAGCTTA	-0.153
AATATAAG	0.0801
GGCAGAGA	-0.0217
TGACGCAA	-0.115
AACTGCAT	-0.156
ACGAATCA	-0.124
CGGCCATC	0.194
AATATGCT	-0.0879
CAATCCTC	-0.124
AGTGGGGG	-0.151
AGAAGTTG	-0.264
TAATGTGA	-0.177
ATGGAGCC	-0.299
CAAGGCAC	-0.23
GTAGTTCA	0.05
CCCCGGGC	0.342
CTGTGGAC	-0.27
TATAAGCA	-0.0654
GTACCTGA	-0.142
AAGCACTG	-0.138
AACTCCTA	0.23
AGATATTG	-0.0174
GAGGACTC	-0.226
CCGTTTGC	0.193

Sequence	PBM E-score
CAAATCGA	-0.268
ATACGTTC	-0.26
GGTGCTTA	-0.154
ACTCTATC	-0.00278
GACGCCGC	0.256
ACCCGGCA	0.174
CCGCAATA	0.195
CAACAAAG	-0.189
ACAGTACG	-0.0602
GATACGAA	-0.168
ATGCGCAT	0.0738
CGATGAGC	0.0322
AATAGTAC	-0.0477
ATCGGGCG	0.241
CGTTTGAA	-0.0173
CGTACGAG	-0.0678
GCGTGAAC	-0.166
CTATGAAG	-0.176
AAGGTGGC	-0.103
GCTCTGTA	-0.213
AGTAAAAA	0.0348
AGTAGGGA	-0.143
CTACGCTC	-0.0331
ATCTCCTC	0.0398
AATGAACC	-0.218

Sequence	PBM E-score
ACCACCGT	-0.0984
AATATTCC	0.357
ACGGGGGG	-0.256
AGCCTCAC	-0.252
CCGAATGA	0.221
CGGCGCAC	0.269
ATTTTGCG	0.0406
GCGCCCCC	-0.0778
CCGTCGAG	0.115
AAATAATT	0.114
AAGGGTTA	-0.15
AGAAGTCA	-0.0826
ATACTGTC	-0.111
AGGCGCGC	0.0748
CTCCTGCA	-0.217
AGAGAACG	-0.231
ATGTTTAA	-0.211
CGACAGAA	0.0827
ACAAAGGG	-0.121
CGGCTACG	0.187
GAGTCTAA	-0.119
CATCCGAG	0.193
GGCACACA	-0.0291
CGTGTTAA	-0.223
GCTTTCAA	-0.0643

Sequence	PBM E-score
CGTGCCAC	-0.153
ATTGCTAG	-0.0899
ACAGGCTC	-0.238
GGAGCTCA	0.0409
CGGTTCAA	0.127
GGGGTAAC	-0.104
AGCGTGGA	-0.0895
GCCAGGGA	-0.212
ATCACAAA	-0.118
CACAGCCG	0.171
AGTCCTTA	-0.226
CCGTTAAA	0.0608
CTCAGAAC	-0.156
AACATCGA	-0.198
CAGGTCGG	0.0287
ACCACTTA	-0.0492
GCAGGAGA	0.0544
CTATCCGC	0.215
GACCCAGC	-0.272
CTTATTGA	-0.0634
ATACTACG	-0.017
CAGCCATC	-0.149
